Hit rate of the full screen: of about 39,000 compounds, about 220 (0.56%) showed activity. The list shows a part of the results.
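Further: static incubation at 37 °C against the wild-type strain, values averaged over two biological replicates.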

This test has as its system Escherichia coli K-12 BW25113. The test can be described thus: relative growth (OD600 normalised to plate interquartile mean) (fraction); higher = less growth inhibition, active = 0.2 or less. Particulars: 50 µM; LB; incubation time: overnight (16-24 h).
As to `CC(C)(C)c1nc(-c2cccc(NS(=O)(=O)c3c(F)cccc3F)c2F)c(-c2ccnc(N)n2)s1`, the relative growth is inactive: 0.97. The value for `C[C@@H]1CN([C@@H](C)CO)C(=O)Cc2cc(NC(=O)CCCCCC(=O)Nc3ccccc3N)ccc2O[C@H]1CN(C)S(C)(=O)=O` was inactive: 0.997. Then `C[C@@H]1CN([C@@H](C)CO)C(=O)c2cc(NC(=O)C3CC3)ccc2O[C@@H]1CN(C)S(=O)(=O)c1cccs1`, with inactive: 0.995; and `C[C@H](CO)N1C[C@H](C)[C@@H](CN(C)C(=O)c2cnccn2)Oc2ncc(/C=C/c3ccccc3)cc2C1=O`, with inactive: 1.01. As for `C[C@@H]1CN([C@H](C)CO)C(=O)c2cc(NC(=O)Nc3cccc4ccccc34)ccc2O[C@H]1CN(C)Cc1ccc(-c2ccccc2)cc1`, the relative growth was inactive: 0.991. The value for `C[C@H]1[C@H](C)CC[C@]2(C(=O)O[C@@H]3O[C@H](CO[C@@H]4O[C@H](CO)[C@@H](O[C@@H]5O[C@@H](C)[C@H](O)[C@@H](O)[C@H]5O)[C@H](O)[C@H]4O)[C@@H](O)[C@H](O)[C@H]3O)CC[C@]3(C)C(=CC[C@@H]4[C@@]5(C)C[C@@H](O)[C@H](O)[C@@](C)(CO)[C@@H]5[C@H](O)C[C@]43C)[C@H]12` was inactive: 0.994; that for `C[C@@H]1CN([C@@H](C)CO)C(=O)c2cc(C3=CCCCC3)cnc2O[C@@H]1CN(C)C(=O)CN1CCOCC1` was inactive: 0.968; that for `C[C@@H]1CN([C@H](C)CO)C(=O)Cc2cc(NC(=O)Nc3ccc(F)cc3)ccc2O[C@@H]1CN(C)S(C)(=O)=O` was inactive: 0.979. Then `Cc1ccc(S(=O)(=O)N(C)C[C@H]2OCCCC[C@@H](C)Oc3ccc(NC(=O)Nc4ccccc4)cc3C(=O)N([C@@H](C)CO)C[C@H]2C)cc1`, with inactive: 1.01; and `C[C@H](CO)N1C[C@H](C)[C@@H](CN(C)Cc2ccc(Oc3ccccc3)cc2)Oc2ccc(NC(=O)NC3CCCCC3)cc2CC1=O`, with inactive: 1.01. The value for `Cc1ccc(S(=O)(=O)N(C)C[C@H]2Oc3ccc(NS(=O)(=O)c4ccc(F)cc4)cc3CC(=O)N([C@@H](C)CO)C[C@H]2C)cc1` was inactive: 0.981. `CC[C@@H](C)n1[nH]c(=O)cc1N`: the relative growth was inactive: 0.999. In the case of `C[C@@H]1CCCCO[C@H](CN(C)C(=O)c2ccncc2)[C@@H](C)CN([C@@H](C)CO)C(=O)c2cc(NC(=O)NC3CCCCC3)ccc2O1`, the relative growth was inactive: 1.02. For `CNC[C@@H]1Oc2ccc(NC(=O)Cn3cnnn3)cc2CC(=O)N([C@H](C)CO)C[C@H]1C`, the relative growth is inactive: 0.995. The value for `OC[C@H]1O[C@@H](O[C@@H]2[C@@H](O)[C@H](O)[C@H](O[C@@H]3[C@@H](O)[C@H](O)[C@H](O)O[C@@H]3CO)O[C@@H]2CO)[C@@H](O)[C@@H](O)[C@@H]1O` was inactive: 1.

These data come from the supplement of paper PMC9446081.
